Measured values reported in PubChem BioAssay AID504332 (National Center for Advancing Translational Sciences (NCATS), 2011).
About 31,000 (8.9%) of roughly 350,000 compounds were called active. This list was built around the results that the source calls inconclusive (neither active nor inactive); the mix of calls is not that of the screen. Calls follow the shape of the dose curve; as a rule, active = well fitted inhibition curve with a large enough effect; inconclusive = small, poorly fitted or top-dose-only effect; inactive = no such curve, though single readings can be large or run the other way. Potencies beside an inconclusive call are fits to weak or partial responses and may not hold up.
% is scaled to controls: 0 for no effect and ±100 for the full control effect; potency is read from the fitted curve at half-maximal effect; tags tell the direction and shape of the fitted curve.
Also: nearly all actives have a fitted effect of over 75% in size.

Each compound was assayed against Histone-lysine N-methyltransferase EHMT2 (Homo sapiens) (UniProt Q96KQ7) (assay: qHTS Assay for Inhibitors of Histone Lysine Methyltransferase G9a). Conditions: G9a H3K9 monomethylation, AlphaScreen, 2 h; activity, negative = inhibition: at 59 µM (top of the series) unless noted.
UniProt Q96KQ7, sequence (Q96KQ7 whole entry, looked up): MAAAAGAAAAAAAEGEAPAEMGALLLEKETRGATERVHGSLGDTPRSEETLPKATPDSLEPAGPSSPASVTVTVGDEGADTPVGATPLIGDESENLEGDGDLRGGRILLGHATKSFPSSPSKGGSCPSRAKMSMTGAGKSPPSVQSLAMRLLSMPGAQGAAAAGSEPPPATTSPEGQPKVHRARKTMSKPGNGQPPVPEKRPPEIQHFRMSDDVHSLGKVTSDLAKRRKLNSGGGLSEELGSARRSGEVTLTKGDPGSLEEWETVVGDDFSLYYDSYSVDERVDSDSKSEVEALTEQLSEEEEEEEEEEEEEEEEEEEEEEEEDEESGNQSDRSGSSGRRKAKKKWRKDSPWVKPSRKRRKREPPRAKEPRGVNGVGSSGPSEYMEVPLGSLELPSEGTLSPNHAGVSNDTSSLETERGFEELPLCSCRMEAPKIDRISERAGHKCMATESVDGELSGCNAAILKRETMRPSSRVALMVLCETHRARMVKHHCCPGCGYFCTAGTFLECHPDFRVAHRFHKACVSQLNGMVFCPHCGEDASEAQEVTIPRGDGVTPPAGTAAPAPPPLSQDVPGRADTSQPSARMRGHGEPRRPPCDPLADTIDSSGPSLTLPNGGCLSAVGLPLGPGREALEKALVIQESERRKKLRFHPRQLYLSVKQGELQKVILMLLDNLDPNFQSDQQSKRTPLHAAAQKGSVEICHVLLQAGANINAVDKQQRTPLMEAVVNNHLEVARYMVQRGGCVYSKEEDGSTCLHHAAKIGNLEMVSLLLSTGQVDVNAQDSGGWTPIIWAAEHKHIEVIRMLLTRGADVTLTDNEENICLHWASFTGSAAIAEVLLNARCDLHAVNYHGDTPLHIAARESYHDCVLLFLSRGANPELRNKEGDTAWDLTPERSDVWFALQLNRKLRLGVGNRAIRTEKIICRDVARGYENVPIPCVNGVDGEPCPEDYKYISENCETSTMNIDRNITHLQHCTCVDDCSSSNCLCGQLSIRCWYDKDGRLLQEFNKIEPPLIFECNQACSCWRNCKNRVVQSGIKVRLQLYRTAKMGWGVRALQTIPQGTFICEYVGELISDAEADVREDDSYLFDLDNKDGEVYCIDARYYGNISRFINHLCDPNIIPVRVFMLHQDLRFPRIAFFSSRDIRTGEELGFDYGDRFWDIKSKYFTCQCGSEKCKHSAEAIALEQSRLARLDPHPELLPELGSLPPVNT
Summary of the method: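 Chemiluminescent proximity detection of H3K9 monomethylation, read after 10 min bead incubation in the dark. Reaction: 20 nM G9a, 500 nM biotin-H3K9 peptide, 20 uM SAM cofactor, 2 h, room temperature, following 15 min enzyme-compound preincubation.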
`CC(NC(=O)C(Cc1ccccc1)NC(=O)c1ccccc1)C(=O)O` (stereo not given) was tested, and the Potency was inconclusive: 89.1 µM [inhibitor, single point].
In the case of `COc1ccc(OC)c(NC(=O)c2nnn(Cc3ccccc3C)c2N)c1`, the activity, negative = inhibition is reported as inconclusive: -68.5% [inhibitor].
For `CC(C)(C)c1cc(NC(=O)COC(=O)C2CC2)n(-c2ccccc2)n1`, the “activity, negative = inhibition” value was inactive: 16% [at 102 µM].
For `COc1ccccc1CC(=O)Nc1cc(S(=O)(=O)N2CCOCC2)ccc1N1CCOCC1`, the Potency was inconclusive: 31.6 µM [inhibitor, single point].
`Cc1ccc(NC(=O)CSc2nc3ccccc3nc2Cc2ccccc2F)cc1F` was tested, and the Potency was inconclusive: 22.4 µM [inhibitor, partial curve, poor fit].
With `CCCn1nnnc1NC(=O)c1ccc(C)cc1Cl` the Potency was active: 22.4 µM.
With `C#CCNC(=O)C1=C[C@H](c2csc3ccccc23)C[C@H](OCCCCO)O1` the activity, negative = inhibition was inconclusive: -57.2% [inhibitor].
`Cc1nnc2sc(SCc3ccccc3)nn2c1=O` was tested, and the Potency was inconclusive: 79.4 µM [inhibitor, partial curve, poor fit].
For `CC(C)NC(=O)Cn1c(SCC(=O)c2ccc(F)cc2)nc2ccccc21`, the Potency was inconclusive: 25.1 µM [inhibitor, single point].
For `Cc1ccc(NC(=O)CSc2nnc(Cc3csc(C)n3)o2)c(C)c1`, the Potency was inconclusive: 56.2 µM [inhibitor, partial curve, poor fit].
In the case of `Cc1[nH]ncc1N=Cc1ccc([N+](=O)[O-])cc1`, the “activity, negative = inhibition” value is reported as inactive: -6.84% [at 102 µM].
In the case of `C#CCOC(=O)CN1C(=O)c2cccc3cccc(c23)C1=O`, the “activity, negative = inhibition” value is reported as inactive: -1.59% [at 102 µM].
With `CN1CCN(C(=O)/C(=C/c2ccc(F)cc2)c2ccsc2)CC1` the Potency was active: 44.7 µM.
In the case of `O=C(NC1CCCCC1)C(c1ccco1)N(Cc1ccco1)C(=O)c1ccco1` (stereo not given), the Potency is reported as inconclusive: 39.8 µM [inhibitor, single point].
In the case of `COc1cc(O)c(C(CCN2CCN(c3ccccc3)CC2)c2ccc3c(c2)OCO3)c(OC)c1` (stereo not given), the activity, negative = inhibition is reported as inconclusive: -97.9% [inhibitor].
For `CCOc1ccc(NC(=O)CN(C)C(=O)c2cc(C3CC3)nn2-c2ccccc2)cc1OCC`, the Potency was inconclusive: 79.4 µM [inhibitor, single point].
`COc1ccc(NC(=O)c2nc[nH]c2C(=O)N2CCN(C(=O)OC(C)(C)C)CC2)cc1` was tested, and the activity, negative = inhibition was inconclusive: -92.5% [inhibitor].
In the case of `O=S(=O)(c1ccccc1)c1nc(-c2ccco2)oc1N1CCCCCC1`, the activity, negative = inhibition is reported as inconclusive: -104% [inhibitor].
For `COc1cccc(NC(=O)c2ccccc2SC)c1`, the Potency was inconclusive: 3.16 µM [inhibitor, partial curve, poor fit].
In the case of `COc1cccc(CN2CCNC(=O)C2CC(=O)N(C)CCC2CCOCC2)c1OC` (stereo not given), the Potency is reported as inconclusive: 50.1 µM [inhibitor, single point].
`COC(=O)c1ccccc1NC(=S)NC(NC(=O)c1ccccc1[N+](=O)[O-])C(Cl)(Cl)Cl` (stereo not given) was tested, and the Potency was active: 3.55 µM.
For `O=C(N/C(=C\c1ccco1)C(=O)N1CCCC1CO)c1ccccc1` (stereo not given), the Potency was active: 15.8 µM.
With `COc1ccc(OCc2nnc(SCC(=O)Nc3cccc(C(C)=O)c3)o2)cc1` the Potency was inconclusive: 35.5 µM [inhibitor, single point].
In the case of `CCCn1c(NCc2ccco2)nc2ccccc21`, the “activity, negative = inhibition” value is reported as inactive: 16.4%.
`COc1ccc(-n2nc(C(=O)N3CCC(N4CCCCC4)CC3)c3c4ccccc4n(C)c3c2=O)cc1` was tested, and the “activity, negative = inhibition” value was inactive: -1.79% [at 102 µM].
`Cc1cccc2c1N(CCCOc1ccccc1)C(=O)C2=O` was tested, and the Potency was active: 70.8 µM.
`S=C(NCCCN1CCOCC1)N1CCN(c2nc(-c3ccccc3)cs2)CC1` was tested, and the Potency was active: 56.2 µM.
`CCOC(=O)C/C(C)=N\Nc1ccc([N+](=O)[O-])cc1[N+](=O)[O-]` was tested, and the Potency was inconclusive: 31.6 µM [inhibitor, single point].
`CCCCN=CC1=C(O)CC(c2ccccc2)CC1=O` (stereo not given) was tested, and the Potency was inconclusive: 0.562 µM [inhibitor, partial curve, poor fit].
`COc1cccc(/C=C2\SC(N3CCC(C)CC3)=NC2=O)c1OC` was tested, and the Potency was active: 28.2 µM.
In the case of `Nc1nncn1C(=O)CCc1ccccc1`, the Potency is reported as inconclusive: 39.8 µM [inhibitor, single point].
For `COc1cc(NS(=O)(=O)c2ccc(NC(=O)c3ccc(Cl)cc3Cl)cc2)ncn1`, the “activity, negative = inhibition” value was inactive: 69.4% [at 102 µM].
For `CCc1nnc(NS(=O)(=O)c2ccc(NS(=O)(=O)c3ccccc3[N+](=O)[O-])cc2)s1`, the Potency was inconclusive: 1.78 µM [inhibitor, full curve].
`O=CN1CCN(C(=O)COc2ccc(Cl)cc2Br)CC1` was tested, and the Potency was inconclusive: 28.2 µM [inhibitor, single point].
For `CC(C)(C)OC(=O)CNC(=O)c1[nH]cnc1C(=O)NC(c1ccccc1)c1ccccc1`, the Potency was inconclusive: 12.6 µM [inhibitor, partial curve, poor fit].
For `O=c1c2sccc2n(Cc2cc(=O)n3ccccc3n2)c(=O)n1-c1ccccc1`, the Potency was inconclusive: 0.316 µM [inhibitor, partial curve, poor fit].
`COc1ccc(OC)c(NC(=O)CCn2cnnn2)c1` was tested, and the “activity, negative = inhibition” value was inactive: 10.5%.
`COc1cccc(C(=O)NCCSCc2ccccc2Cl)c1` was tested, and the “activity, negative = inhibition” value was inactive: 35% [at 102 µM].
In the case of `Cc1ccc(C(=O)NCC(=O)N(C)CC(=O)Nc2ccccc2Br)s1`, the activity, negative = inhibition is reported as inactive: 35.2% [at 12.7 µM].
`CCOc1ccc(Nc2nnc(SCc3nc4ccccc4c(=O)[nH]3)s2)cc1` was tested, and the activity, negative = inhibition was inconclusive: -58.4% [inhibitor].
With `CCc1ccc(C2=CC(c3cc(Br)ccc3F)n3ncnc3N2)cc1` (stereo not given) the Potency was inconclusive: 39.8 µM [inhibitor, single point].
`Cc1nnc(C)n1/N=C/c1ccc(O)cc1` was tested, and the Potency was inconclusive: 28.2 µM [inhibitor, partial curve, poor fit].
In the case of `COc1cccc(Nc2ncc3ncc(=O)n(C[C@H]4CCCO4)c3n2)c1`, the activity, negative = inhibition is reported as inactive: 6.91% [at 0.501 µM].
In the case of `Cc1ccc(S(=O)(=O)NCCCCCC(=O)Nc2ccccc2C)cc1`, the Potency is reported as inconclusive: 89.1 µM [inhibitor, partial curve, poor fit].
`COc1cc(C(=O)NCC(c2ccc(N(C)C)cc2)N2CCc3ccccc32)cc(OC)c1OC` (stereo not given) was tested, and the Potency was active: 17.8 µM.
